The campaign covered roughly 46,000 compounds. About 60 (0.1%) were called active. Another 3% or so got no clear call; they are omitted. The call rests on the fitted dose curve; in most records, active means well fitted inhibition curve with a large enough effect; inconclusive means small, poorly fitted or top-dose-only effect; inactive means no such curve, though single readings can be large or run the other way. Some of the results follow.
assay: Primary qHTS assay for Inhibitors of ovarian cancer metastasis using an organotypic tumor microenvironment (TME) model.; further: nearly all actives have a fitted effect of over 65% in size;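 on activity change, negative = inhibition: plate controls were DMSO wells for no effect and tomatine positive control wells for full effect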; conditions: SKOV3ip1-GFP adhesion/invasion on 3D omental model, fluorescence; series mostly up to 45.8 µM; activity change, negative = inhibition: at the top concentration
Outline: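 A 3D layer of primary human omental fibroblasts, mesothelial cells, fibronectin and collagen I, grown 48 hr, received SKOV3ip1-GFP cells in serum-free medium plus compounds at 0.36-46 umol/L. After 2 hr RT and 16 hr 37 C, fixed adherent GFP cells were counted; normalized to DMSO and tomatine.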

Activity change, negative = inhibition, inactive:
O=C(Cc1ccccc1F)N1CCC(c2nc3c(nnn3Cc3cccc(Cl)c3)c(=O)[nH]2)CC1 -5.84%, Cc1ccc(-n2c(-c3ccco3)nc3c(cnn3-c3ccc(C)cc3)c2=O)cc1 8.83%, COc1ccc(CNC(=O)CN(c2ccc(OC)cc2)S(=O)(=O)c2c(C)[nH]c(=O)[nH]c2=O)cc1 2.08%, CC1=C(C(=O)OCC2CCCCC2)C(c2cccc(F)c2F)CC(=O)N1 (stereo unspecified) 27.9%, Cn1c(=O)oc2cc(S(=O)(=O)N3CCCC(C(=O)N4CCN(c5cccc(Cl)c5)CC4)C3)ccc21 (stereo unspecified) -2.46%, CCC(=O)N1CCc2cc(Br)cc(S(=O)(=O)N(CC)Cc3ccccc3)c21 6.46%, COc1ccc(OC)c(NC(=O)N(C)CCc2c(C)nn(C)c2C)c1 -2.77%, CCOc1ccc(NC(=O)CC2C(=O)N(c3ccc(C)cc3)C(=O)N2Cc2ccc(OC)cc2)cc1 (stereo unspecified) 4.39%, CCOc1ccc(NC(=O)c2c(NC(=O)c3ccccc3Br)sc3c2CCC(C)C3)cc1 (stereo unspecified) 0.907%, Cc1cc(-c2nc3ncccc3o2)ccc1NC(=O)c1ccc(Cl)cc1 -4.75%, COC(=O)CSc1ccc2nnc(CCNS(=O)(=O)c3ccccc3)n2n1 28.4%, CCOc1ccc(S(=O)(=O)NCC(c2ccc(N(C)C)cc2)N2CCc3ccccc32)cc1 (stereo unspecified) -7.05%, Cc1nc(-c2cccc(F)c2)sc1CCNC(=O)C(=O)Nc1ccc2c(c1)OCO2 2.63%, Cc1ccc(-c2nc3ncccc3o2)cc1NC(=O)c1ccc(-c2cccc(Cl)c2C)o1 1.46%, CCc1cccc(C)c1NC(=O)c1cn2c3c(ccc(Cl)c3c1=O)OC(C)C2 (stereo unspecified) 1.1%, Cc1cccc(N2CCN(c3ncnc4onc(C)c34)CC2C)c1 (stereo unspecified) -3.58%, N#Cc1nc(/C=C/c2ccc(F)cc2)oc1NC1CCCCC1 10.1%, Cc1ccccc1NC(=O)c1c(NC(=O)c2cccs2)sc2c1CCC(C)C2 (stereo unspecified) 2.19%, O=C(Nc1ccc2nn(-c3ccc(Cl)cc3)nc2c1)c1cc2ccccc2o1 -1.69%, CCc1cccc(C)c1NS(=O)(=O)c1ccc(-c2cc(C)no2)s1 -6.71%, COc1ccc(-c2cccc(NS(=O)(=O)c3cc(C)ccc3OC)c2)nn1 -11.2%, Cc1cccc(NC(=O)c2c(N)sc3c2CCC(C)C3)c1 (stereo unspecified) 19.7%, COc1ccc(-c2nc3cc(NC(=O)c4cc5ccccc5o4)ccc3o2)cc1 2.1%, CCOC(=O)c1cc(-c2ccccc2)n(CCC(=O)NCCc2ccc(OC)c(OC)c2)c1C -2.33%, Cn1c(=O)n(C)c2cc(N3CCCCC3)c(NC(=O)c3c(F)cccc3F)cc21 -27.4%, COc1ccc(N(C)C(=O)C2CCN(S(=O)(=O)c3cc(Br)cc4c3N(C(C)=O)CC4)CC2)cc1 -1.76%, Cc1ccc(NCc2cccn2-c2nnc(N3CCC(C(=O)NCc4ccc(F)cc4)CC3)s2)cc1 -24.9%, CCn1ccc2cc(S(=O)(=O)N3CCC(C(=O)NCc4ccc(F)cc4)CC3)ccc21 -9.54%, O=C(Nc1ccc2nc(SCC(=O)N3CCOCC3)sc2c1)c1ccccc1Cl -5.37%, Cc1ccc(NC(=O)CSc2nnc(COc3ccc(Cl)cc3)o2)c(C)c1 -2.82%, Cc1ccn2c(Nc3ccccc3C)c(-c3ccccc3)nc2c1 -11.3%, CN(C)c1ccc(CNC(=O)c2sc3ncccc3c2-n2cccc2)cc1 3.72%, CN(C)c1ccc(C(=O)NCc2ccc3c(c2)CCN3C(=O)c2ccccc2)cc1 -8.98%, CC(C)CCNC(=O)CSc1nc2ccccc2nc1Cc1ccc(Cl)cc1 8.87%, CSc1ccc(CNC(=O)Cn2ccc3cc(S(=O)(=O)N4CCCC4)ccc32)cc1 -22.1%, Cc1cc(C)c(NC(=O)CN2C(=O)CCSc3ccc(S(=O)(=O)N4CCCC4)cc32)c(C)c1 7.3%, COCCn1c(C)cc(O)c(C(c2ccc(Cl)cc2)N2CCCCC2)c1=O (stereo unspecified) -0.949%, CCN(c1ncnc2c1cnn2-c1cccc(Cl)c1)C1CCCCC1 3.29%, Cc1ccc(-c2cc(C(F)(F)F)c(C#N)c(SCC(=O)Nc3ccccc3F)n2)cc1 2.02%, Cc1cccc(N2CCN(C(=O)c3nn(C)c4c3CS(=O)(=O)c3ccccc3-4)CC2C)c1 (stereo unspecified) 11.8%, Cc1ccc(-n2c(=O)c3ccccc3n(CC(=O)Nc3cccc(C(F)(F)F)c3)c2=O)cc1 -7.77%, O=C(Nc1ccc2nc(SCC(=O)N3CCOCC3)sc2c1)c1ccc(Cl)cc1 4.15%, O=C(c1ccccc1)N1CCCCC1CCN1CCCCC1 (stereo unspecified) 21.8%, CCN(Cc1ccccc1)C(=O)C(CC(C)C)NS(=O)(=O)c1ccc2c(c1)CCN2C(C)=O (stereo unspecified) 1.88%, O=C(CN1C(=O)CC(c2ccc(F)cc2)=Nc2ccccc21)NCc1ccccc1Cl -13%, CN(C1CCCCC1)S(=O)(=O)c1ccc2c(c1)c(=O)c(C(=O)NCc1ccc(Cl)cc1)cn2C -6.93%, Cc1ccc(C)c(Nc2nn3c(=O)c4ccc(C(=O)NCc5cccs5)cc4nc3s2)c1 -9.2%

outcome, inactive:
O=C(CC1(O)C(=O)N(Cc2ccccc2)c2ccc(Br)cc21)c1ccccc1 (stereo unspecified), COc1ccc(NC(=O)Cn2nnc(C(=O)Nc3ccc(C)c(F)c3)c2N)cc1Cl, O=C(NCCCCc1ccccc1)c1nn(-c2ccccc2)nc1CO, COc1ccc(C(=O)NCC(c2ccco2)S(=O)(=O)c2cccs2)cc1 (stereo unspecified), Cc1ccc(OCc2cc(=O)n3ccsc3n2)c(NC(=O)c2ccco2)c1, Cc1cccc(OCC(=O)Nc2ccccc2OCc2cc(=O)n3cc(C)ccc3n2)c1, COc1cccc(NC(=O)Cn2c(=O)n(Cc3ccco3)c(=O)c3cc(OC)c(OC)cc32)c1, O=C(Cn1c(=O)n2nc(-c3cccc(F)c3)nc2c2ccccc21)NCc1ccc(Cl)cc1, Cc1cc(C)cc(NC(=O)CCN2C(=O)c3ccccc3Sc3ncccc32)c1, CC1CCN(c2nc(-c3ccc(Br)cc3)nc3ccccc23)CC1, COc1ccccc1CNC(=O)CS(=O)(=O)Cc1nc(-c2ccccc2C)oc1C, COc1ccc(C2C(=O)N(C3CCCCC3)CC(=O)N2C2CCCCC2)cc1 (stereo unspecified), COc1cccc(CNC(=O)CN2C(=O)CSc3ccc(S(=O)(=O)N4CCCC4)cc32)c1, COc1cc(Cl)c(NS(=O)(=O)c2ccc(-c3coc(C)n3)cc2)c(OC)c1

Reference: PubChem BioAssay AID1963576 (National Center for Advancing Translational Sciences (NCATS), 2024)
